Measurements taken from the RNAGym collection of RNA variant scans (doi:10.1093/nar/gkz1192).
The source gives no read counts; variants with many changes may rest on few reads.

B1: CPEB3 Ribozyme (parent)
chain: UAACAGGGGGCCACAGCAGAAGCGUUCACGUCGCAGCCCCUGUCAGAUUCUGGUGAAUCUGCGAAUUCUGCUGUAUAUCUC

Variants of: B1
Assay: self-cleavage, relative activity (ratio to wild type); higher = more cleavage; in vitro, sequencing
How it was run: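 Relative activity was defined as the cleaved/total read fraction for a variant divided by the same fraction for the unmutated ribozyme. CPEB3 self-cleaving ribozyme libraries were made by rounds of error-prone PCR, barcoded, and transcribed in vitro with T7 RNA polymerase for 5 hours at 37°C, and cleavage ran through transcription plus a 15 min DNase I step before EDTA. Illumina sequencing of template-switched reverse transcripts gave the reads, and DNA sequencing mapped the barcodes. Averages come from three batches, using variants with at least 5 reads.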

**Q.** For G8A A13G U48C U54C, which self-cleavage is on record?
**A.** The self-cleavage was 0.09.

**Q.** Which self-cleavage does the source give for G8A A13U A15C A47G U49A here?
**A.** Its self-cleavage is 0.07.

**Q.** For G8A A13U A15G A21G U26C G33A A64U, which self-cleavage is on record?
**A.** The self-cleavage was 0.05.

**Q.** Which self-cleavage does the source give for G8A A13U A20C U25C U41C here?
**A.** The self-cleavage was 0.21.

**Q.** With G8A A13U A21G A47G A64U A65G U76C as the variant, how does the self-cleavage read?
**A.** Its self-cleavage is 0.03.

**Q.** For G8A A13U A21G G36A U78C, which self-cleavage is on record?
**A.** Its self-cleavage is 0.15.

**Q.** For G8A A13U A57G, which self-cleavage is on record?
**A.** Its self-cleavage is 0.07.

**Q.** For G8A A13U A65G U80C, which self-cleavage is on record?
**A.** The self-cleavage was 0.06.

**Q.** With G8A A13U C14G G33A A47C as the variant, how does the self-cleavage read?
**A.** Its self-cleavage is 0.08.

**Q.** Which self-cleavage does the source give for G8A A13U C23U A45U U60C here?
**A.** The self-cleavage was 0.25.

**Q.** Which self-cleavage does the source give for G8A A13U C29U C34A U41A U60C U74A here?
**A.** Its self-cleavage is 0.03.

**Q.** For G8A A13U C40U A77G, which self-cleavage is on record?
**A.** The self-cleavage was 0.07.

**Q.** Which self-cleavage does the source give for G8A A13U U31C U48C A64U A77G U80C here?
**A.** Its self-cleavage is 0.05.

**Q.** With G8A A13U U41A A45U U54A A65U as the variant, how does the self-cleavage read?
**A.** The self-cleavage was 0.05.

**Q.** For G8A A13U U54A U67C U74C A75U, which self-cleavage is on record?
**A.** Its self-cleavage is 0.06.

**Q.** Which self-cleavage does the source give for G8A A13U U69C U76C here?
**A.** The self-cleavage was 0.38.

**Q.** With G8A A15C U60C U78C as the variant, how does the self-cleavage read?
**A.** Its self-cleavage is 0.78.

**Q.** For G8A A15G A18G U69A, which self-cleavage is on record?
**A.** The self-cleavage was 0.25.

**Q.** With G8A A15G A35G G52A as the variant, how does the self-cleavage read?
**A.** Its self-cleavage is 0.11.

**Q.** For G8A A15G C27G U43C U60A U66C U80A, which self-cleavage is on record?
**A.** The self-cleavage was 0.22.

**Q.** With G8A A15G C68A as the variant, how does the self-cleavage read?
**A.** Its self-cleavage is 0.17.

**Q.** For G8A A15G G30C A65G, which self-cleavage is on record?
**A.** The self-cleavage was 0.38.

**Q.** Which self-cleavage does the source give for G8A A15G G53C G63U here?
**A.** Its self-cleavage is 0.38.

**Q.** Which self-cleavage does the source give for G8A A15G U26A A35G here?
**A.** The self-cleavage was 0.34.

**Q.** For G8A A15G U31C U41C A56U U72C A75G, which self-cleavage is on record?
**A.** The self-cleavage was 0.04.

**Q.** Which self-cleavage does the source give for G8A A15G U76C here?
**A.** Its self-cleavage is 0.19.

**Q.** With G8A A15U A21G U43C U49C A75G as the variant, how does the self-cleavage read?
**A.** Its self-cleavage is 0.17.

**Q.** Which self-cleavage does the source give for G8A A15U A28C U54C G63A here?
**A.** The self-cleavage was 0.13.

**Q.** With G8A A15U U31C U78C as the variant, how does the self-cleavage read?
**A.** The self-cleavage was 0.08.

**Q.** With G8A A15U U48C A65G as the variant, how does the self-cleavage read?
**A.** Its self-cleavage is 0.08.

**Q.** For G8A A18C A77G, which self-cleavage is on record?
**A.** The self-cleavage was 0.3.

**Q.** Which self-cleavage does the source give for G8A A18C C59A here?
**A.** The self-cleavage was 0.05.

**Q.** For G8A A18G A21G C40U U41A G63A U74C, which self-cleavage is on record?
**A.** Its self-cleavage is 0.07.

**Q.** With G8A A18G A21G U25A C68G as the variant, how does the self-cleavage read?
**A.** The self-cleavage was 0.04.

**Q.** With G8A A18G A28G U41C U80A as the variant, how does the self-cleavage read?
**A.** The self-cleavage was 0.06.

**Q.** For G8A A18G A45U U49C U69A, which self-cleavage is on record?
**A.** Its self-cleavage is 0.06.

**Q.** With G8A A18G U26A A28U G36A U69A as the variant, how does the self-cleavage read?
**A.** The self-cleavage was 0.04.

**Q.** Which self-cleavage does the source give for G8A A18G U26A A45U U78C here?
**A.** The self-cleavage was 0.45.

**Q.** For G8A A18G U26G A28U, which self-cleavage is on record?
**A.** Its self-cleavage is 0.22.

**Q.** Which self-cleavage does the source give for G8A A18G U31C A57G U67C here?
**A.** Its self-cleavage is 0.05.

**Q.** Which self-cleavage does the source give for G8A A18U C37G U43A U67C here?
**A.** The self-cleavage was 0.04.

**Q.** For G8A A18U U25C, which self-cleavage is on record?
**A.** The self-cleavage was 0.06.

**Q.** For G8A A18U U41C A47C A65U U76A U80C, which self-cleavage is on record?
**A.** Its self-cleavage is 0.04.

**Q.** With G8A A20G A21G A35C A47G G73A as the variant, how does the self-cleavage read?
**A.** Its self-cleavage is 0.07.

**Q.** With G8A A20G A35G C40U U49C as the variant, how does the self-cleavage read?
**A.** Its self-cleavage is 0.46.

**Q.** For G8A A20G A45G, which self-cleavage is on record?
**A.** Its self-cleavage is 0.29.

**Q.** Which self-cleavage does the source give for G8A A20G A56G here?
**A.** Its self-cleavage is 0.21.

**Q.** Which self-cleavage does the source give for G8A A20G A57G here?
**A.** The self-cleavage was 0.33.

**Q.** Which self-cleavage does the source give for G8A A20G A64U U78C here?
**A.** The self-cleavage was 0.05.

**Q.** For G8A A20G C23A C29A U54A, which self-cleavage is on record?
**A.** The self-cleavage was 0.26.

**Q.** Which self-cleavage does the source give for G8A A20G G33A A64G C68U here?
**A.** The self-cleavage was 0.05.

**Q.** With G8A A20G U48C U49C U78C as the variant, how does the self-cleavage read?
**A.** Its self-cleavage is 0.04.

**Q.** Which self-cleavage does the source give for G8A A20G U69C U78C here?
**A.** Its self-cleavage is 0.05.

**Q.** With G8A A20U A21G A47G U54G U72C U78C as the variant, how does the self-cleavage read?
**A.** The self-cleavage was 0.16.

**Q.** Which self-cleavage does the source give for G8A A20U A35U U49C here?
**A.** Its self-cleavage is 0.02.

**Q.** For G8A A20U U41C A57G U76A, which self-cleavage is on record?
**A.** The self-cleavage was 0.04.

**Q.** Which self-cleavage does the source give for G8A A20U U43C C44A U60C here?
**A.** The self-cleavage was 0.05.

**Q.** With G8A A20U U54C U67C A77G as the variant, how does the self-cleavage read?
**A.** The self-cleavage was 0.08.

**Q.** With G8A A21G A77G as the variant, how does the self-cleavage read?
**A.** The self-cleavage was 0.13.

**Q.** For G8A A21G C38U U60G U69C, which self-cleavage is on record?
**A.** Its self-cleavage is 0.03.

**Q.** With G8A A21G U26C C29A G70A U72C as the variant, how does the self-cleavage read?
**A.** Its self-cleavage is 0.04.

**Q.** For G8A A21G U31A, which self-cleavage is on record?
**A.** Its self-cleavage is 0.09.

**Q.** With G8A A21G U51A U60A A65G A77G as the variant, how does the self-cleavage read?
**A.** The self-cleavage was 0.03.

**Q.** Which self-cleavage does the source give for G8A A21G U51C here?
**A.** The self-cleavage was 0.17.

**Q.** Which self-cleavage does the source give for G8A A21G U60A here?
**A.** Its self-cleavage is 0.06.

**Q.** For G8A A28C A45C A47G A56U A57G U69C, which self-cleavage is on record?
**A.** Its self-cleavage is 0.06.

**Q.** Which self-cleavage does the source give for G8A A28C A45G U69C here?
**A.** The self-cleavage was 0.05.

**Q.** Which self-cleavage does the source give for G8A A28C A65G U72A U80A here?
**A.** Its self-cleavage is 0.05.

**Q.** Which self-cleavage does the source give for G8A A28C U51C U72C here?
**A.** The self-cleavage was 0.22.

**Q.** For G8A A28G G30A G33U, which self-cleavage is on record?
**A.** The self-cleavage was 0.07.

**Q.** For G8A A28G G33U, which self-cleavage is on record?
**A.** Its self-cleavage is 0.15.

**Q.** With G8A A28G G33U C40A U67C as the variant, how does the self-cleavage read?
**A.** The self-cleavage was 0.06.

**Q.** Which self-cleavage does the source give for G8A A28G U31A G33U U60A U67C A75G here?
**A.** The self-cleavage was 0.08.

**Q.** Which self-cleavage does the source give for G8A A28G U31C U69A A77U here?
**A.** Its self-cleavage is 0.06.

**Q.** Which self-cleavage does the source give for G8A A28G U51C here?
**A.** Its self-cleavage is 0.32.

**Q.** For G8A A28G U54C A56G A77G, which self-cleavage is on record?
**A.** Its self-cleavage is 0.47.

**Q.** With G8A A28G U54C A57U U60C A75G as the variant, how does the self-cleavage read?
**A.** The self-cleavage was 0.05.

**Q.** For G8A A28U U48G U51A U60A A64U, which self-cleavage is on record?
**A.** Its self-cleavage is 0.12.

**Q.** For G8A A35C A64G, which self-cleavage is on record?
**A.** The self-cleavage was 0.09.

**Q.** Which self-cleavage does the source give for G8A A35G U41C here?
**A.** Its self-cleavage is 0.53.

**Q.** With G8A A35G U54C A64U A75G as the variant, how does the self-cleavage read?
**A.** Its self-cleavage is 0.09.

**Q.** Which self-cleavage does the source give for G8A A35U U60C U72C U80C here?
**A.** The self-cleavage was 0.05.

**Q.** Which self-cleavage does the source give for G8A A35U U80C here?
**A.** The self-cleavage was 0.21.

**Q.** With G8A A45G A64G A75G as the variant, how does the self-cleavage read?
**A.** Its self-cleavage is 0.16.
